Reference: publication PMC5062570 (Nature Communications, 2016)
“And” between values parts separate entries of the source, which are not always exact repeats. Identical values can stand only once.

Assays:
[1] = target: PF-7802-labelled proteins in ARPE-19 cells (Homo sapiens, UniProt P05023)
[2] = target: PF-7802-labelled proteins in ARPE-19 cells (Homo sapiens, UniProt Q7L7L0); conditions: protein HIST3H2A Histone H2A type 3 (Q7L7L0); one column per replicate
[3] = target: PF-7802-labelled proteins in ARPE-19 cells (Homo sapiens, UniProt Q01082)
Sequence of UniProt Q01082 (Q01082 whole entry): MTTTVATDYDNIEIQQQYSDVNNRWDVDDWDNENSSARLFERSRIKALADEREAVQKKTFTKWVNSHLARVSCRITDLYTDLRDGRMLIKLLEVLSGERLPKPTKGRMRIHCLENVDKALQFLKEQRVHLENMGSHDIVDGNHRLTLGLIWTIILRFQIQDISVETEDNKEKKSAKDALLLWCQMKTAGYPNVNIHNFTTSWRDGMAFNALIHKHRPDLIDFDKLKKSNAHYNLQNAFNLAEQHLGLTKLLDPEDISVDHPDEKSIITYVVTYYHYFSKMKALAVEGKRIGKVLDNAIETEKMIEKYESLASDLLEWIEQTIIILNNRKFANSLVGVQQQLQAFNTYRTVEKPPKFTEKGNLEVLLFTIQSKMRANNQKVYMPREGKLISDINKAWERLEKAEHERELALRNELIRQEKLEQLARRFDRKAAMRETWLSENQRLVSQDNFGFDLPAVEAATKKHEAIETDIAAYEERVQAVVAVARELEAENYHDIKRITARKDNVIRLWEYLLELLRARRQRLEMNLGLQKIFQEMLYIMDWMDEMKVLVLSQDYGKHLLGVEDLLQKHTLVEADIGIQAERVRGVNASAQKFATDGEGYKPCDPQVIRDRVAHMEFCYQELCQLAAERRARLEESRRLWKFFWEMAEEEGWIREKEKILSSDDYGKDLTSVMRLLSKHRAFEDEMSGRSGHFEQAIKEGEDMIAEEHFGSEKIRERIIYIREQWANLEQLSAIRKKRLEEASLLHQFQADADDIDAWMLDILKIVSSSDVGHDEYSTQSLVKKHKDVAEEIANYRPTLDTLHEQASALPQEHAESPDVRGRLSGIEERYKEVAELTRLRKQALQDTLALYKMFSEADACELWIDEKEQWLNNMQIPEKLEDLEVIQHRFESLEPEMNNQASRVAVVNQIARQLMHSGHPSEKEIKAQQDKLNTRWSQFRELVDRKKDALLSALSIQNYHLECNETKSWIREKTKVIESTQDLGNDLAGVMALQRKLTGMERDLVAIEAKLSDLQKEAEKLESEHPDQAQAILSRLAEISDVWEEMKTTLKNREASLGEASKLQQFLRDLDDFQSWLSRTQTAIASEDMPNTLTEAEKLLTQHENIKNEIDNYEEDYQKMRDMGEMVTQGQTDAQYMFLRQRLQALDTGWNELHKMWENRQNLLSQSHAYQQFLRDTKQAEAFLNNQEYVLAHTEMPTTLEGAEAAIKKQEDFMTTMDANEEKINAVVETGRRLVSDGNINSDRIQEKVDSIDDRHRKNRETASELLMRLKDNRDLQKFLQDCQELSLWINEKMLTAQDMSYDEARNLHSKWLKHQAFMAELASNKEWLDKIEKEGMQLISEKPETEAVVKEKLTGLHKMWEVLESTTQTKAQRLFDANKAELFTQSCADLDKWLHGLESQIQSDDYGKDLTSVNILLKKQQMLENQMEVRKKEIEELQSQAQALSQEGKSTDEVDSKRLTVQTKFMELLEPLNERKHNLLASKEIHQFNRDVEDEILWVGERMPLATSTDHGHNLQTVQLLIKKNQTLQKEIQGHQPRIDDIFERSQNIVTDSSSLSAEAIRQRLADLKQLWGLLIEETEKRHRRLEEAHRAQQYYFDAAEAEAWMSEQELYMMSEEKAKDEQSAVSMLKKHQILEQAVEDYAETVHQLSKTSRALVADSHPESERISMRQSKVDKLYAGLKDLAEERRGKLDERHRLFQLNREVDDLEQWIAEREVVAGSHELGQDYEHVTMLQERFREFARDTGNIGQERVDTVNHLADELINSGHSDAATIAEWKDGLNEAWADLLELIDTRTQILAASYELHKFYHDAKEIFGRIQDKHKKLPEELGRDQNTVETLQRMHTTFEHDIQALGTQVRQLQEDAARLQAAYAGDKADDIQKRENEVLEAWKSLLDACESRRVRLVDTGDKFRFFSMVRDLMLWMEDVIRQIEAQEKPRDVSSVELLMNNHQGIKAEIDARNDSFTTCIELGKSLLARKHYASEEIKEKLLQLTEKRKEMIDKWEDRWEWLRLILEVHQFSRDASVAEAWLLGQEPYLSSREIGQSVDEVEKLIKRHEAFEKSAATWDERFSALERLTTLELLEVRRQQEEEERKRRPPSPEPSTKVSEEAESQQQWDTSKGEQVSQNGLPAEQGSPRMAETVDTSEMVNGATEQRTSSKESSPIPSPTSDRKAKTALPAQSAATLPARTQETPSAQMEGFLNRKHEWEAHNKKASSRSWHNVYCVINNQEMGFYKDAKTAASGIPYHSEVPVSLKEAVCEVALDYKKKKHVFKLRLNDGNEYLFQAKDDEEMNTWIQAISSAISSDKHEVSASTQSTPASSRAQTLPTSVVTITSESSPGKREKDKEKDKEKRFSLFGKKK

[4] = target: PF-7802-labelled proteins in ARPE-19 cells (Homo sapiens, UniProt P84098)
[5] = target: PF-7802-labelled proteins in ARPE-19 cells (Homo sapiens, UniProt Q16643); conditions: Q16643 DBN1 Drebrin
[6] = target: PF-7802-labelled proteins in ARPE-19 cells (Homo sapiens, UniProt Q71U36); conditions: Q71U36 TUBA1A Tubulin alpha-1A chain
[7] = target: PF-7802-labelled proteins in ARPE-19 cells (Homo sapiens, UniProt P62805)
[8] = target: PF-7802-labelled proteins in ARPE-19 cells (Homo sapiens, UniProt Q14697); conditions: Q14697 GANAB Neutral alpha-glucosidase AB
[9] = target: PF-7802-labelled proteins in ARPE-19 cells (Homo sapiens, UniProt P10619); conditions: protein CTSA Lysosomal protective protein (P10619)
[10] = target: PF-7802-labelled proteins in ARPE-19 cells (Homo sapiens, UniProt P16403); conditions: P16403 HIST1H1C Histone H1.2
Sequence of UniProt P16403 (P16403 whole entry): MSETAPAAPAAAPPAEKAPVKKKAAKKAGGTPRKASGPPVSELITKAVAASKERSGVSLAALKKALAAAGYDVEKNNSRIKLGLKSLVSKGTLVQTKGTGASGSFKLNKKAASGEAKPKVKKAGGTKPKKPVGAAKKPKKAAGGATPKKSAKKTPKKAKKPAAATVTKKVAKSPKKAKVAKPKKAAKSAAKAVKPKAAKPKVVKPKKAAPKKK

[11] = target: PF-7802-labelled proteins in ARPE-19 cells (Homo sapiens, UniProt Q02878)
[12] = target: PF-7802-labelled proteins in ARPE-19 cells (Homo sapiens, UniProt P04075); conditions: protein ALDOA Fructose-bisphosphate aldolase A (P04075)
[13] = target: PF-7802-labelled proteins in ARPE-19 cells (Homo sapiens, UniProt P51148); conditions: protein RAB5C Ras-related protein Rab-5C, P51148
Sequence of UniProt P51148 (P51148 whole entry): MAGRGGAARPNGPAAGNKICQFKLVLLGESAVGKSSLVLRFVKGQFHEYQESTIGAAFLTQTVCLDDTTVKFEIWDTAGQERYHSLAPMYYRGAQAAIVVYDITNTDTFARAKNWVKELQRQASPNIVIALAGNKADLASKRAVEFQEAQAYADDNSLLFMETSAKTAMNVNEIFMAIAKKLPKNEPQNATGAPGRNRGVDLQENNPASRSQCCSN

[14] = target: PF-7802-labelled proteins in ARPE-19 cells (Homo sapiens, UniProt P11142)
Sequence of UniProt P11142 (P11142 whole entry): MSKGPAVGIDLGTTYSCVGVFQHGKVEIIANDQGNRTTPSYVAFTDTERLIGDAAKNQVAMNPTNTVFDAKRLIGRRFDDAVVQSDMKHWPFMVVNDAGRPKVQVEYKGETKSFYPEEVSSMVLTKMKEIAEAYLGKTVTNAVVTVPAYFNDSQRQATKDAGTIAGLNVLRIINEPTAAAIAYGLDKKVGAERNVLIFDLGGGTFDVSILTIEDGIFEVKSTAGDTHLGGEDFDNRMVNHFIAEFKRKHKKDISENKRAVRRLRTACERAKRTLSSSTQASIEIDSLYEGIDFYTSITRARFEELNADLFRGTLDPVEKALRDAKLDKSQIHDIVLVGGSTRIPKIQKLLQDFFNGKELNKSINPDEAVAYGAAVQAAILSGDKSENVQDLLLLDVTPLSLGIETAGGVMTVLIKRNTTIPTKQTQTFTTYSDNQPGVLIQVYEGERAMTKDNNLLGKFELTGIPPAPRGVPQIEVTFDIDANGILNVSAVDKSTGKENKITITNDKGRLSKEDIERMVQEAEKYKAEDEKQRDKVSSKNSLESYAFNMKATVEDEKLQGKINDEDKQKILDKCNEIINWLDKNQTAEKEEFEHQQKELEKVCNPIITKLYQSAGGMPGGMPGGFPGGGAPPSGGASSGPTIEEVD

[15] = target: PF-7802-labelled proteins in ARPE-19 cells (Homo sapiens, UniProt P35914); conditions: protein HMGCL Hydroxymethylglutaryl-CoA lyase, mitochondrial (P35914); one column per replicate
[16] = target: PF-7802-labelled proteins in ARPE-19 cells (Homo sapiens, UniProt P07195); conditions: protein LDHB L-lactate dehydrogenase B chain (P07195); replicates in separate columns
Sequence of UniProt P07195 (P07195 whole entry, canonical isoform): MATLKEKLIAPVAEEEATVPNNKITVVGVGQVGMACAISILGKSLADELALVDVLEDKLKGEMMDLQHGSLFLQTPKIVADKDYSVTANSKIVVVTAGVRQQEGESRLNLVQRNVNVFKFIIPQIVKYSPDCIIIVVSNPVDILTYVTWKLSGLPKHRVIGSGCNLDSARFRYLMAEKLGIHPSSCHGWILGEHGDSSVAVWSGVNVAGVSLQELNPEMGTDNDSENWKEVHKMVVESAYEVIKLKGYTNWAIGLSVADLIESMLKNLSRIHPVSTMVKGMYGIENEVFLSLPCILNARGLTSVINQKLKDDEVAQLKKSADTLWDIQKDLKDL

[17] = target: PF-7802-labelled proteins in ARPE-19 cells (Homo sapiens, UniProt P13073); conditions: protein COX4I1 Cytochrome c oxidase subunit 4 isoform 1, mitochondrial (P13073)
[18] = target: PF-7802-labelled proteins in ARPE-19 cells (Homo sapiens, UniProt P61604); conditions: protein HSPE1 10 kDa heat shock protein, mitochondrial (P61604); one column per replicate
Sequence of UniProt P61604 (P61604 whole entry): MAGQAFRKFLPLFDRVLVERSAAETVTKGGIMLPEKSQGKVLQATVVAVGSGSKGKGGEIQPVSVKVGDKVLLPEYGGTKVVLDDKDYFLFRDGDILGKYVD

[19] = target: PF-7802-labelled proteins in ARPE-19 cells (Homo sapiens, UniProt P14406); conditions: protein COX7A2 Cytochrome c oxidase subunit 7A2, mitochondrial (P14406)
[20] = target: PF-7802-labelled proteins in ARPE-19 cells (Homo sapiens, UniProt P84077); conditions: protein ARF1 ADP-ribosylation factor 1 (P84077)
Sequence of UniProt P84077 (P84077 whole entry): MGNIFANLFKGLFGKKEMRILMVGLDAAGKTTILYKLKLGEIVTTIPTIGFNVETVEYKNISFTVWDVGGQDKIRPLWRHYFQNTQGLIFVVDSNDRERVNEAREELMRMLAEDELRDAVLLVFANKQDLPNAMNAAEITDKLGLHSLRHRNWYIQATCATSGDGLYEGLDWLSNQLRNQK

[21] = target: PF-7802-labelled proteins in ARPE-19 cells (Homo sapiens, UniProt P62829); conditions: protein RPL23 60S ribosomal protein L23, P62829
[22] = target: PF-7802-labelled proteins in ARPE-19 cells (Homo sapiens, UniProt P11233); conditions: protein RALA Ras-related protein Ral-A, P11233
Sequence of UniProt P11233 (P11233 whole entry): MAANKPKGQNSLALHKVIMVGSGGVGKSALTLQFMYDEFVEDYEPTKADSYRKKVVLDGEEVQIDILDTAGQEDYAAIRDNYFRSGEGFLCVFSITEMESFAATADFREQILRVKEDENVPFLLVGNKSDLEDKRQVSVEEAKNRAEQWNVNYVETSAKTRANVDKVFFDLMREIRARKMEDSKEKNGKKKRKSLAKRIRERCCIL

[23] = target: PF-7802-labelled proteins in ARPE-19 cells (Homo sapiens, UniProt Q14533); conditions: protein KRT81 Keratin, type II cuticular Hb1 (Q14533); one column per replicate
Sequence of UniProt Q14533 (Q14533 whole entry): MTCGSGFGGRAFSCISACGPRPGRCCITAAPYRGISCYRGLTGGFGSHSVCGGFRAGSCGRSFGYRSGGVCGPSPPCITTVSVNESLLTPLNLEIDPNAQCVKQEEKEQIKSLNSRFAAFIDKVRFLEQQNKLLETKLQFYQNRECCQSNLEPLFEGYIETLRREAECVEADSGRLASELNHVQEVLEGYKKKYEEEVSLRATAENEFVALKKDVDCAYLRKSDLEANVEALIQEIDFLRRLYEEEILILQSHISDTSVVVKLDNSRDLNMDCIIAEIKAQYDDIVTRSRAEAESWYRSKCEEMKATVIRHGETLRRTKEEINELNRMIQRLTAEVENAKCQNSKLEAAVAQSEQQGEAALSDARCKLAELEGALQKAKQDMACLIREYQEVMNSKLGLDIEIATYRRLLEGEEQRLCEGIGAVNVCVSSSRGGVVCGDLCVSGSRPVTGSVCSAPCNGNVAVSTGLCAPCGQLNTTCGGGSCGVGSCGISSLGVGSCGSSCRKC

[24] = target: PF-7802-labelled proteins in ARPE-19 cells (Homo sapiens, UniProt Q8IY17); conditions: protein PNPLA6 Neuropathy target esterase (Q8IY17); replicates in separate columns
[25] = target: PF-7802-labelled proteins in ARPE-19 cells (Homo sapiens, UniProt O14880); conditions: protein MGST3 Microsomal glutathione S-transferase 3 (O14880); replicates in separate columns
Sequence of UniProt O14880 (O14880 whole entry): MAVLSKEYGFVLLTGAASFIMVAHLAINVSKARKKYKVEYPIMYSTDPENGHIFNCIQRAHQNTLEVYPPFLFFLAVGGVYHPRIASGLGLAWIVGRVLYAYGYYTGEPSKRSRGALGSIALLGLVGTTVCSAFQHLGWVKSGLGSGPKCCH

[26] = target: PF-7802-labelled proteins in ARPE-19 cells (Homo sapiens, UniProt P25398); conditions: protein RPS12 40S ribosomal protein S12, P25398

CNC1CCN(C(=O)C[C@@H](Cc2ccccc2)C(=O)N[C@@H](CSC)C(=O)N[C@@H](CC2CCCCC2)[C@@H](O)C(=O)OC(C)C)CC1 [CP-108671, reference compound]
SILAC ratio (DMSO/CP-108671) ([1]; P05023 ATP1A1 Sodium/potassium-transporting ATPase subunit alpha-1): 0.86 | Median SILAC Ratio (Heavy/Light) ([1]; protein ATP1A1 Sodium/potassium-transporting ATPase subunit alpha-1 (P05023)): 1.165 | Median SILAC Ratio (Heavy/Light) [2]: 0.834 | SILAC ratio (DMSO/CP-108671) ([3]; Q01082 SPTBN1 Spectrin beta chain, non-erythrocytic 1): 0.85 | Median SILAC Ratio (Heavy/Light) ([3]; SPTBN1 Spectrin beta chain, non-erythrocytic 1 (Q01082)): 1.177 | SILAC ratio (DMSO/CP-108671) ([4]; P84098 RPL19 60S ribosomal protein L19): 0.91 | Median SILAC Ratio (Heavy/Light) ([4]; protein RPL19 60S ribosomal protein L19, P84098): 1.248 and 0.8409 | SILAC ratio (DMSO/CP-108671) [5]: 0.80 | SILAC ratio (DMSO/CP-108671) [6]: 0.45 | SILAC ratio (DMSO/CP-108671) ([7]; P62805 HIST4H4 Histone H4): 0.96 | Median SILAC Ratio (Heavy/Light) ([7]; protein HIST4H4 Histone H4 (P62805), one column per replicate): 1.0412 and 0.9304 | SILAC ratio (DMSO/CP-108671) [8]: 0.85 | Median SILAC Ratio (Heavy/Light) [9]: 0.6539 | SILAC ratio (DMSO/CP-108671) [10]: 0.89 | SILAC ratio (DMSO/CP-108671) ([11]; Q02878 RPL6 60S ribosomal protein L6): 0.69 | Median SILAC Ratio (Heavy/Light) ([11]; protein RPL6 60S ribosomal protein L6, Q02878): 1.46 | Median SILAC Ratio (Heavy/Light) [12]: 2.871 | Median SILAC Ratio (Heavy/Light) [13]: 0.617 | SILAC ratio (DMSO/CP-108671) ([14]; P11142 HSPA8 Heat shock cognate 71 kDa protein): 0.70 | Median SILAC Ratio (Heavy/Light) ([14]; protein HSPA8 Heat shock cognate 71 kDa protein (P11142), one column per replicate): 1.431 and 0.8416

Cc1cc([C@H]2C[C@H]3[C@@H](C)SC(N)=N[C@@]3(c3ccc(F)cc3F)CO2)on1 [PF-9283]
Median SILAC Ratio (Heavy/Light) [15]: 1.531 | Median SILAC Ratio (Heavy/Light) [16]: 2.35 and 1.921 | Median SILAC Ratio (Heavy/Light) [17]: 0.1469 | Median SILAC Ratio (Heavy/Light) [18]: 1.386 and 0.7458 | Median SILAC Ratio (Heavy/Light) [19]: 0.8985 | Median SILAC Ratio (Heavy/Light) [20]: 0.6905 and 0.7654 | Median SILAC Ratio (Heavy/Light) [21]: 1.182 | Median SILAC Ratio (Heavy/Light) [22]: 1.184 | Median SILAC Ratio (Heavy/Light) [23]: 106.012 | Median SILAC Ratio (Heavy/Light) [24]: 0.8659 | Median SILAC Ratio (Heavy/Light) [25]: 0.4639 | Median SILAC Ratio (Heavy/Light) [26]: 1.69
